In the supplement of paper PMC11741623:
This is one part of the list. Interaction screen of human proteins with wild-type SARS-CoV-2 proteins by split-DHFR complementation in yeast, 1 µg/mL methotrexate. Value = fitness of the pair (three or more lineages) minus that of the viral protein without a human partner, on a scale set by negative (0) and fused positive (1) controls, mean of up to three cultures; higher = more likely to interact. Active = false discovery rate below 0.05 (one-sided t-test) in at least one culture. Nearly all pairs are not hits, and differences among them are mostly noise (correlation between cultures about 0.3); most hits were seen in one culture only. Human sequences are the Swiss-Prot entries looked up by gene name; the clone may be another isoform. NSP2 values were corrected by the authors for a growth advantage. Listed are human proteins with a hit and a random twelfth of the others.

Experiments:
Assay in all cases: yeast fitness gain over the viral ORF with no human partner (scaled fitness); higher = more likely to interact
SARS-CoV-2 E = target: SARS-CoV-2 E
Procedure: (§1)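 Split mouse DHFR complementation in pooled diploid yeast: human ORFeome clones carry one fragment and viral ORFs the other; barcoded lineages compete in 1 µg/mL methotrexate and fitness is read by barcode sequencing in up to three cultures.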

SARS-CoV-2 N = target: SARS-CoV-2 N
Procedure: as §1

SARS-CoV-2 NSP10 = target: SARS-CoV-2 NSP10
Procedure: as §1

SARS-CoV-2 NSP12 = target: SARS-CoV-2 NSP12
Procedure: as §1

SARS-CoV-2 NSP13 = target: SARS-CoV-2 NSP13
Procedure: as §1

SARS-CoV-2 NSP2 = target: SARS-CoV-2 NSP2
Procedure: as §1

SARS-CoV-2 NSP5 = target: SARS-CoV-2 NSP5
Procedure: as §1

SARS-CoV-2 NSP6 = target: SARS-CoV-2 NSP6
Procedure: as §1

SARS-CoV-2 NSP7 = target: SARS-CoV-2 NSP7
Procedure: as §1

SARS-CoV-2 NSP8 = target: SARS-CoV-2 NSP8
Procedure: as §1

SARS-CoV-2 NSP9 = target: SARS-CoV-2 NSP9
Procedure: as §1

SARS-CoV-2 ORF10 = target: SARS-CoV-2 ORF10
Procedure: as §1

SARS-CoV-2 ORF3A = target: SARS-CoV-2 ORF3A
Procedure: as §1

SARS-CoV-2 ORF3B = target: SARS-CoV-2 ORF3B
Procedure: as §1

SARS-CoV-2 ORF6 = target: SARS-CoV-2 ORF6
Procedure: as §1

SARS-CoV-2 ORF7A = target: SARS-CoV-2 ORF7A
Procedure: as §1

SARS-CoV-2 ORF7B = target: SARS-CoV-2 ORF7B
Procedure: as §1

SARS-CoV-2 ORF8 = target: SARS-CoV-2 ORF8
Procedure: as §1

SARS-CoV-2 ORF9B = target: SARS-CoV-2 ORF9B
Procedure: as §1

[1] = target: SARS-CoV-2 ORF9Bwu (the 73-codon ORF)
Procedure: as §1

SARS-CoV-2 S = target: SARS-CoV-2 S
Procedure: as §1

SARS-CoV-2 M = target: SARS-CoV-2 M
Procedure: as §1

SARS-CoV-2 NSP1 = target: SARS-CoV-2 NSP1
Procedure: as §1

SARS-CoV-2 NSP15 = target: SARS-CoV-2 NSP15
Procedure: as §1

SARS-CoV-2 NSP16 = target: SARS-CoV-2 NSP16
Procedure: as §1

SARS-CoV-2 NSP4 = target: SARS-CoV-2 NSP4
Procedure: as §1

SARS-CoV-2 NSP14 = target: SARS-CoV-2 NSP14
Procedure: as §1

B1: SCN3B, Q9NY72 (protein)
chain: MPAFNRLFPLASLVLIYWVSVCFPVCVEVPSETEAVQGNPMKLRCISCMKREEVEATTVVEWFYRPEGGKDFLIYEYRNGHQEVESPFQGRLQWNGSKDLQDVSITVLNVTLNDSGLYTCNVSREFEFEAHRPFVKTTRLIPLRVTEEAGEDFTSVVSEIMMYILLVFLTLWLLIEMIYCYRKVSKAEEAAQENASDYLAIPSENKENSAVPVEE
yeast fitness gain (SARS-CoV-2 E): inactive: -0.0149 | yeast fitness gain (SARS-CoV-2 N): inactive: 0.0807 | yeast fitness gain (SARS-CoV-2 NSP10): inactive: -0.0938 | yeast fitness gain (SARS-CoV-2 NSP12): inactive: -0.229 | yeast fitness gain (SARS-CoV-2 NSP13): inactive: -0.0395 | yeast fitness gain (SARS-CoV-2 NSP2): inactive: -0.187 | yeast fitness gain (SARS-CoV-2 NSP5): inactive: -0.133 | yeast fitness gain (SARS-CoV-2 NSP6): inactive: -0.0358 | yeast fitness gain (SARS-CoV-2 NSP7): inactive: -0.15 | yeast fitness gain (SARS-CoV-2 NSP8): inactive: -0.0268 | yeast fitness gain (SARS-CoV-2 NSP9): inactive: -0.0362 | yeast fitness gain (SARS-CoV-2 ORF10): inactive: 0.00347 | yeast fitness gain (SARS-CoV-2 ORF3A): inactive: 0.0639 | yeast fitness gain (SARS-CoV-2 ORF3B): inactive: -0.0265 | yeast fitness gain (SARS-CoV-2 ORF6): inactive: -0.0178 | yeast fitness gain (SARS-CoV-2 ORF7A): inactive: 0.274 | yeast fitness gain (SARS-CoV-2 ORF7B): inactive: 0.155 | yeast fitness gain (SARS-CoV-2 ORF8): inactive: 0.12 | yeast fitness gain (SARS-CoV-2 ORF9B): inactive: -0.00471 | yeast fitness gain [1]: inactive: 0.0331 | yeast fitness gain (SARS-CoV-2 S): inactive: -0.102

B2: HMG20A, Q9NP66 (protein)
chain: MENLMTSSTLPPLFADEDGSKESNDLATTGLNHPEVPYSSGATSSTNNPEFVEDLSQGQLLQSESSNAAEGNEQRHEDEQRSKRGGWSKGRKRKKPLRDSNAPKSPLTGYVRFMNERREQLRAKRPEVPFPEITRMLGNEWSKLPPEEKQRYLDEADRDKERYMKELEQYQKTEAYKVFSRKTQDRQKGKSHRQDAARQATHDHEKETEVKERSVFDIPIFTEEFLNHSKAREAELRQLRKSNMEFEERNAALQKHVESMRTAVEKLEVDVIQERSRNTVLQQHLETLRQVLTSSFASMPLPGSGETPTVDTIDSYMNRLHSIILANPQDNENFIATVREVVNRLDR
yeast fitness gain (SARS-CoV-2 E): inactive: -0.144 | yeast fitness gain (SARS-CoV-2 NSP10): inactive: 0.116 | yeast fitness gain (SARS-CoV-2 NSP12): inactive: -0.203 | yeast fitness gain (SARS-CoV-2 NSP13): inactive: 0.0158 | yeast fitness gain (SARS-CoV-2 NSP2): inactive: -0.207 | yeast fitness gain (SARS-CoV-2 NSP5): inactive: -0.101 | yeast fitness gain (SARS-CoV-2 ORF10): inactive: -0.0828 | yeast fitness gain (SARS-CoV-2 ORF3B): inactive: -0.0506 | yeast fitness gain (SARS-CoV-2 ORF6): inactive: 0.0341 | yeast fitness gain (SARS-CoV-2 ORF7B): inactive: -0.0723 | yeast fitness gain (SARS-CoV-2 ORF8): inactive: 0.104 | yeast fitness gain (SARS-CoV-2 S): inactive: -0.00507

B3: SLC38A7, Q9NVC3 (protein)
chain: MAQVSINNDYSEWDLSTDAGERARLLQSPCVDTAPKSEWEASPGGLDRGTTSTLGAIFIVVNACLGAGLLNFPAAFSTAGGVAAGIALQMGMLVFIISGLVILAYCSQASNERTYQEVVWAVCGKLTGVLCEVAIAVYTFGTCIAFLIIIGDQQDKIIAVMAKEPEGASGPWYTDRKFTISLTAFLFILPLSIPREIGFQKYASFLSVVGTWYVTAIVIIKYIWPDKEMTPGNILTRPASWMAVFNAMPTICFGFQCHVSSVPVFNSMQQPEVKTWGGVVTAAMVIALAVYMGTGICGFLTFGAAVDPDVLLSYPSEDMAVAVARAFIILSVLTSYPILHFCGRAVVEGLWLRYQGVPVEEDVGRERRRRVLQTLVWFLLTLLLALFIPDIGKVISVIGGLAACFIFVFPGLCLIQAKLSEMEEVKPASWWVLVSYGVLLVTLGAFIFGQTTANAIFVDLLA
yeast fitness gain (SARS-CoV-2 E): inactive: -0.0194 | yeast fitness gain (SARS-CoV-2 M): inactive: 0.024 | yeast fitness gain (SARS-CoV-2 N): inactive: -0.121 | yeast fitness gain (SARS-CoV-2 NSP1): inactive: 0.0552 | yeast fitness gain (SARS-CoV-2 NSP10): inactive: -0.0124 | yeast fitness gain (SARS-CoV-2 NSP12): inactive: 0.0519 | yeast fitness gain (SARS-CoV-2 NSP13): inactive: -0.00476 | yeast fitness gain (SARS-CoV-2 NSP15): inactive: -0.0118 | yeast fitness gain (SARS-CoV-2 NSP16): inactive: 0.0367 | yeast fitness gain (SARS-CoV-2 NSP2): inactive: -0.138 | yeast fitness gain (SARS-CoV-2 NSP4): inactive: 0.0424 | yeast fitness gain (SARS-CoV-2 NSP5): inactive: -0.0852 | yeast fitness gain (SARS-CoV-2 NSP6): inactive: 0.0981 | yeast fitness gain (SARS-CoV-2 NSP7): inactive: 0.0516 | yeast fitness gain (SARS-CoV-2 NSP8): inactive: -0.0995 | yeast fitness gain (SARS-CoV-2 NSP9): inactive: 0.104 | yeast fitness gain (SARS-CoV-2 ORF10): inactive: -0.00729 | yeast fitness gain (SARS-CoV-2 ORF3A): inactive: 0.0177 | yeast fitness gain (SARS-CoV-2 ORF3B): inactive: -0.0168 | yeast fitness gain (SARS-CoV-2 ORF6): inactive: 0.0219 | yeast fitness gain (SARS-CoV-2 ORF7A): inactive: -0.00425 | yeast fitness gain (SARS-CoV-2 ORF7B): inactive: 0.0247 | yeast fitness gain (SARS-CoV-2 ORF8): inactive: 0.0122 | yeast fitness gain (SARS-CoV-2 ORF9B): inactive: 0.00449 | yeast fitness gain [1]: inactive: 0.0535 | yeast fitness gain (SARS-CoV-2 S): inactive: -0.0575

B4: OPALIN, Q96PE5 (protein)
chain: MSFSLNFTLPANTTSSPVTGGKETDCGPSLGLAAGIPLLVATALLVALLFTLIHRRRSSIEAMEESDRPCEISEIDDNPKISENPRRSPTHEKNTMGAQEAHIYVKTVAGSEEPVHDRYRPTIEMERRRGLWWLVPRLSLE
yeast fitness gain (SARS-CoV-2 E): inactive: -0.0413 | yeast fitness gain (SARS-CoV-2 M): inactive: 0.0183 | yeast fitness gain (SARS-CoV-2 N): inactive: 0.0375 | yeast fitness gain (SARS-CoV-2 NSP1): inactive: 0.0479 | yeast fitness gain (SARS-CoV-2 NSP10): inactive: -0.0181 | yeast fitness gain (SARS-CoV-2 NSP12): inactive: 0.0528 | yeast fitness gain (SARS-CoV-2 NSP13): inactive: 0.00241 | yeast fitness gain (SARS-CoV-2 NSP14): inactive: 0.0303 | yeast fitness gain (SARS-CoV-2 NSP15): inactive: 0.0759 | yeast fitness gain (SARS-CoV-2 NSP16): inactive: 0.0263 | yeast fitness gain (SARS-CoV-2 NSP2): inactive: -0.0308 | yeast fitness gain (SARS-CoV-2 NSP4): inactive: 0.325 | yeast fitness gain (SARS-CoV-2 NSP5): inactive: 0.0111 | yeast fitness gain (SARS-CoV-2 NSP6): inactive: 0.0277 | yeast fitness gain (SARS-CoV-2 NSP7): inactive: -0.00648 | yeast fitness gain (SARS-CoV-2 NSP8): inactive: 0.0295 | yeast fitness gain (SARS-CoV-2 NSP9): inactive: -0.0208 | yeast fitness gain (SARS-CoV-2 ORF10): inactive: 0.0443 | yeast fitness gain (SARS-CoV-2 ORF3A): inactive: -0.0511 | yeast fitness gain (SARS-CoV-2 ORF3B): inactive: 0.0161 | yeast fitness gain (SARS-CoV-2 ORF6): inactive: -0.0158 | yeast fitness gain (SARS-CoV-2 ORF7A): inactive: 0.175 | yeast fitness gain (SARS-CoV-2 ORF7B): active: 0.39 | yeast fitness gain (SARS-CoV-2 ORF8): inactive: 0.0376 | yeast fitness gain (SARS-CoV-2 ORF9B): inactive: 0.0243 | yeast fitness gain [1]: inactive: -0.0374 | yeast fitness gain (SARS-CoV-2 S): inactive: -0.0304
